From PubChem BioAssay AID588855 (National Center for Advancing Translational Sciences (NCATS), 2011)
Several values for one entry are separate records, joined by “and”; a condition that tells them apart may be missing. Equal entries are not always repeated. The whole screen tested about 410,000 compounds, of which about 5,000 (1.2%) were called active. Inconclusive means that the source gave no clear call. Such entries were picked first, then a sample of the others. Calls follow the shape of the dose curve; as a rule, active = well fitted inhibition curve with a large enough effect; inconclusive = small, poorly fitted or top-dose-only effect; inactive = no such curve, though single readings can be large or run the other way. Potencies beside an inconclusive call are fits to weak or partial responses and may not hold up.
% is scaled to controls: 0 for no effect and ±100 for the full control effect; potency is read from the fitted curve at half-maximal effect; tags tell the direction and shape of the fitted curve.

Assay: qHTS for Inhibitors of TGF-b; also: nearly all actives have a fitted effect of over 65% in size
Conditions: HepG2 CAGA-GFP TGF-b/SMAD3 reporter, GFP fluorescence, 18 h, TGF-beta stimulated, 500 pg/mL final; series mostly up to 46.1 µM; activity, negative = inhibition: at the top concentration
Outline: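 Cell-based qHTS in HEPG2 carrying a CAGA-GFP Smad reporter; compounds added before 500 pg/mL final TGF-beta, 18 h incubation at 37 degrees C, GFP fluorescence quantified per cell by imaging cytometry.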
In the case of CCCCC#Cc1ccc2c(c1)COc1c3ccccc3nn1-2, the Potency is reported as inconclusive: 5.62 µM [inhibitor, single point].
With O=Cc1c[nH]c2cccc(OCc3ccccc3)c12 the “activity, negative = inhibition” value was inactive: -15.2%.
For CCCCCC(=O)Nc1cccc(C2=NOC3(C2)C[C@H](C(N)=O)N(C(=O)c2ccccc2)C3)c1 (stereo not given in full), the “activity, negative = inhibition” value was inactive: 10.5%.
In the case of N#Cc1c(N)nc(N2CCCC2)c(C#N)c1-c1ccc(Cl)cc1, the “activity, negative = inhibition” value is reported as inactive: -4.99%.
For COc1cc(C2/C(=C(\O)c3ccc4c(c3)CC(C)O4)C(=O)C(=O)N2CC2CCCO2)cc(OC)c1OC (stereo not given), the Potency was inconclusive: 35.5 µM [inhibitor, single point].
For O=C(c1ccc2c(=O)n(CCc3ccccc3)c(=O)[nH]c2c1)N1CCN(c2ccc(F)cc2)CC1, the Potency was inconclusive: 7.08 µM [inhibitor, partial curve] and inconclusive: 35.5 µM [inhibitor, single point].
For COc1ccc(CNC(=O)Nc2nc(C(N)CCc3ccccc3)cs2)cc1 (stereo not given), the Potency was inconclusive: 31.6 µM [inhibitor, single point].
For Clc1ccc2nc(N3CCNCC3)nc(-c3ccccc3)c2c1, the Potency was inconclusive: 35.5 µM [inhibitor, single point].
For CCOc1cc(/C=N/NC(=O)CN2CCCCC2)ccc1OCc1cccc(Cl)c1, the Potency was inconclusive: 35.5 µM [inhibitor, single point].
With COc1cccc(C(O)c2nc(-c3ccc(F)cc3OC)cs2)c1 (stereo not given) the “activity, negative = inhibition” value was inactive: -1.21%.
In the case of CCOc1ccc(C(=O)Nc2cccc(-c3nc4cc(Cl)cc(Cl)c4o3)c2)cc1, the “activity, negative = inhibition” value is reported as inactive: 5.77%.
For COc1ccc(-c2nc(C#N)c(NCc3ccccc3Cl)o2)cc1OC, the Potency was inconclusive: 35.5 µM [inhibitor, single point].
In the case of Cc1cc(C)c2nc(NCc3ccccc3O)sc2c1, the Potency is reported as inconclusive: 25.1 µM [inhibitor, single point].
With Cc1cc(OCC(=O)N(Cc2ccco2)C2CCS(=O)(=O)C2)cc(C)c1Cl (stereo not given) the “activity, negative = inhibition” value was inactive: -9.67%.
For Cc1cc(C)n(CC(O)Cn2c3ccc(Br)cc3c3cc(Br)ccc32)c(=O)n1 (stereo not given), the Potency was inconclusive: 14.1 µM [inhibitor, partial curve, poor fit].
With CN(C)C(=O)c1cccc(-c2cc(NC=O)c3ncc(-c4ccc(F)c(Cl)c4)n3c2)c1 the Potency was inconclusive: 25.1 µM [inhibitor, single point].
In the case of Cc1nn2c(-c3ccccc3)nnc2c2ccccc12, the Potency is reported as inconclusive: 15.8 µM [inhibitor, partial curve, poor fit].
In the case of O=C(Nc1nc2ccccc2n1CCN1CCOCC1)c1cn(-c2ccccc2)nc1-c1ccccc1, the “activity, negative = inhibition” value is reported as inactive: -13%.
In the case of CCOc1ccc(S(=O)(=O)NCc2ccc3c(c2)OCO3)cc1NC(C)=O, the Potency is reported as inconclusive: 35.5 µM [inhibitor, single point].
With Cc1cccc(N2CCN(c3nc4ccc(Cl)cc4n4cnnc34)CC2)c1C the Potency was inconclusive: 35.5 µM [inhibitor, single point].
For CN(C)CCCN(C(=O)c1cc(-c2cccs2)nc2ccccc12)c1nc2c(F)cccc2s1, the Potency was inconclusive: 17.8 µM [inhibitor, single point].
In the case of COc1ccc2c(c1)c1ncn(CCN3CCCC3)c(=O)c1n2C, the “activity, negative = inhibition” value is reported as inactive: -1.74%.
In the case of Cc1ccc2c(c1)C(=O)C(=O)N2Cc1ccc(Cl)cc1, the Potency is reported as inconclusive: 3.98 µM [inhibitor, partial curve, poor fit].
For Cc1nnc(N2CCC(C(=O)NCCc3ccccc3Cl)CC2)c2nn(-c3ccccc3)c(C)c12, the Potency was inconclusive: 3.55 µM [inhibitor, partial curve, poor fit].
With COc1ccc(C2c3[nH]c4ccccc4c3CCN2C(=O)c2cn3ccccc3n2)c(F)c1 (stereo not given) the Potency was inconclusive: 12.6 µM [inhibitor, single point].
In the case of Cc1cc(C)c(N=C2CCCN2Cc2ccccc2)c(C#N)c1, the Potency is reported as inconclusive: 12.6 µM [inhibitor, partial curve, poor fit].
With CCOc1ccc(NC(=S)N(Cc2ccc(Cl)cc2)Cc2ccco2)cc1 the Potency was inconclusive: 11.2 µM [inhibitor, single point].
In the case of Cc1cccc(N2CCN(C(=O)Nc3cn(CC(C)C)c(=O)c4ccccc34)CC2)c1C, the Potency is reported as inconclusive: 25.1 µM [inhibitor, single point].
In the case of C(=C\c1nc2ccccc2o1)/c1ccc2c(c1)OCO2, the “activity, negative = inhibition” value is reported as inactive: -1.94%.
For CC(C)c1ccc(CN(Cc2ccco2)c2cnc(S(C)(=O)=O)nc2C(=O)Nc2ccc(F)cc2)cc1, the Potency was inconclusive: 0.447 µM [inhibitor, full curve].
In the case of Cc1cc(C)c(N2C(=O)CC(Sc3ccccc3N)C2=O)c(C)c1 (stereo not given), the Potency is reported as inconclusive: 25.1 µM [inhibitor, single point].
In the case of Fc1ccc(Nc2nc(NCc3ccco3)c3ccccc3n2)cc1, the Potency is reported as inconclusive: 11.2 µM [inhibitor, partial curve, poor fit].
For Cc1nn(CC(=O)Nc2ccc3c(c2)OCO3)c(C)c1Cl, the Potency was inconclusive: 15.8 µM [inhibitor, single point].
With CCOc1ccccc1N(CC(=O)NCCSc1ccccc1)S(=O)(=O)c1ccccc1 the Potency was inconclusive: 35.5 µM [inhibitor, single point].
In the case of CCCC(=O)N1CCCC(c2cc(C(=O)NCc3ccc(F)cc3)no2)C1 (stereo not given), the “activity, negative = inhibition” value is reported as inactive: 23.7%.
In the case of Cc1nnc(SCCn2c(N3CCC(Cc4ccccc4)CC3)nc3c2c(=O)[nH]c(=O)n3C)s1, the “activity, negative = inhibition” value is reported as inactive: -4.03%.
In the case of CC(C)CC(N)c1csc(NC(=O)c2cc(C(C)(C)C)nn2Cc2ccccc2)n1 (stereo not given), the Potency is reported as inconclusive: 14.1 µM [inhibitor, single point].
In the case of O=P(OC1CCCCC1)(OC1CCCCC1)C(Nc1ccccc1)c1cccnc1 (stereo not given), the “activity, negative = inhibition” value is reported as inactive: 25.9%.
For CC(C)c1cc(CNC(=O)c2cc(COc3cncc(Cl)c3)on2)on1, the “activity, negative = inhibition” value was inactive: -19.7%.
In the case of Cc1ccc(NC(=O)C(C)c2cccc(C(=O)c3ccccc3)c2)cc1 (stereo not given), the Potency is reported as inconclusive: 12.6 µM [inhibitor, partial curve].
With CN1CCN(c2ccc(S(=O)(=O)N3CCCCC3)cc2NC(=O)c2ccc(C#N)cc2)CC1 the “activity, negative = inhibition” value was inactive: 9.28%.
For COc1ccc(N=CC2=C(O)c3ccccc3C2=O)c(OC)c1, the “activity, negative = inhibition” value was inactive: -5.12%.
With O=c1cnn(Cc2ccc(F)cc2)c2ccccc12 the “activity, negative = inhibition” value was inactive: 7.92%.
For CCC(=O)N1N=C2CC(C)(C)OCC2C1c1ccccc1 (stereo not given), the “activity, negative = inhibition” value was inactive: -3.45%.
In the case of NC(Cc1ccccc1)c1csc(Nc2ccc(C(F)(F)F)cn2)n1 (stereo not given), the Potency is reported as inconclusive: 35.5 µM [inhibitor, single point].
In the case of CCCCc1ccc(NC(=O)c2ccc(=O)n(Cc3cccc(C)c3)c2)cc1, the Potency is reported as inconclusive: 31.6 µM [inhibitor, single point].
For COc1ccc(-c2nc(C)c(CCNS(=O)(=O)c3cc(C)c(C)cc3C)s2)cc1, the Potency was active: 11.2 µM.
With COc1ccc(/C=C2\SC(=S)N(N3CCOCC3)C2=O)c(OC)c1 the “activity, negative = inhibition” value was inactive: 6.17%.
In the case of O=C(NCCc1ccccc1)c1nnc(Cc2cccc(F)c2)o1, the “activity, negative = inhibition” value is reported as inactive: -11.5%.
In the case of CC(=O)OC[C@@H]1CN(Cc2ccccc2)C[C@H](n2cnc3c(N4CCN(c5ccccc5)CC4)ncnc32)O1, the “activity, negative = inhibition” value is reported as inactive: 0.244%.
In the case of O=C(O)c1ccccc1NS(=O)(=O)c1ccc(N/N=C/c2cccc(O)c2O)c([N+](=O)[O-])c1, the Potency is reported as inconclusive: 10 µM [inhibitor, single point].
In the case of COc1ccc(-c2cc(=O)c3cc(C)ccc3[nH]2)cc1, the Potency is reported as inconclusive: 2.51 µM [inhibitor, partial curve, poor fit].
For O=C(NCCS(=O)(=O)N1CCN(c2ccccc2)CC1)c1ccco1, the Potency was inconclusive: 6.31 µM [inhibitor, single point].
With COc1ccc(C(=O)CN2CCN(CCN3C(=O)c4cccc5cccc(c45)C3=O)CC2)cc1 the Potency was inconclusive: 35.5 µM [inhibitor, single point].
With CCCCCC(=O)Nc1cccc(C2=NOC3(C2)C[C@H](C(N)=O)N(C(=O)c2ccccc2C(=O)c2ccccc2)C3)c1 (stereo not given in full) the Potency was active: 11.2 µM.
With CC1C(c2ccccc2)OCCN1C(=S)Nc1ccc(S(=O)(=O)N2CCCCC2)cc1 (stereo not given) the Potency was inconclusive: 20 µM [inhibitor, partial curve, poor fit].
For Oc1ccc(N=Nc2ccccc2)cc1, the “activity, negative = inhibition” value was inactive: -9.46%.
In the case of COc1nc(N(c2ccccc2)c2ccccc2)nc(-n2ccnc2)n1, the Potency is reported as inconclusive: 35.5 µM [inhibitor, single point].
In the case of Cc1ccc(C(=O)NC(=S)N2CCCC2)cc1, the “activity, negative = inhibition” value is reported as inactive: 6.31%.
With CCOC(=O)c1ccccc1NC(=O)N(C(C)C)C1CCN(C(C)=O)CC1 the “activity, negative = inhibition” value was inactive: -3.93%.
With CSc1ccc(/C=C/C(=O)c2ccc(O)cc2)cc1 the Potency was inconclusive: 35.5 µM [inhibitor, single point].
For CCOC(=O)c1c(NC(=O)c2c(C)noc2C)sc2c1CCCCC2, the Potency was inconclusive: 11.2 µM [inhibitor, partial curve, poor fit].
In the case of CCn1c(SCC(=O)NNC(=S)Nc2ccccc2)nnc1-c1ccc(Cl)cc1, the “activity, negative = inhibition” value is reported as inactive: 1.49%.
In the case of COc1ccc(C(=O)CSc2nnc(CNC(=O)c3ccco3)n2C)cc1OC, the “activity, negative = inhibition” value is reported as inactive: -3.51%.
With CCCc1cc(-c2nc(-c3ccc(Br)cc3)cs2)ccn1 the Potency was inconclusive: 6.31 µM [inhibitor, partial curve, poor fit].
With CCCC[n+]1ccn(C2=C([O-])c3ccccc3C(=O)/C2=N\S(=O)(=O)c2ccc(Cl)cc2)c1 the Potency was active: 10 µM.
For O=S(Cc1ccc(Br)cc1)Cc1nnc(SCc2ccc(Br)cc2)n1-c1ccccc1 (stereo not given), the Potency was active: 8.91 µM.
For CC1=CC(=O)C=C(C)C1=NOC(=O)c1cccc([N+](=O)[O-])c1, the “activity, negative = inhibition” value was inactive: -5.3%.
In the case of S=c1[nH]nc(C2CCCCC2)n1/N=C/c1c(Cl)cccc1Cl, the “activity, negative = inhibition” value is reported as inactive: -6.38%.
For Cc1ccccc1Oc1ccc2c(c1)[C@@H]1C[C@H](N(C)C(=S)Nc3ccc(F)cc3)[C@H]([C@H](C)O)C(=O)N1CC2, the Potency was inconclusive: 12.6 µM [inhibitor, partial curve, poor fit].
